From PubChem BioAssay AID2147 (National Center for Advancing Translational Sciences (NCATS), 2009)
The campaign covered roughly 230,000 compounds. About 3,600 (1.6%) were called active. Inconclusive results, whose numbers are uncertain, are shown with a selection of clear calls. Calls come from the whole dose curve; as a rule, active = well fitted inhibition curve with a large enough effect (not every such curve was filed as active); inconclusive = small, poorly fitted or top-dose-only effect, or another doubt; inactive = no such curve, though single readings can be large or run the other way. Potencies of inconclusive entries are doubtful fits and often do not repeat.

target: Lysine-specific demethylase 4E (Homo sapiens) (UniProt B2RXH2); experiment: qHTS Assay for Inhibitors of Human Jumonji Domain Containing 2E (JMJD2E); conditions: JMJD2E catalytic domain, FDH-coupled NADH fluorescence (FDH is formaldehyde dehydrogenase); series mostly up to 57.1 µM
Note: nearly all actives have a fitted effect of over 50% in size.
Potency is the fitted concentration of half-maximal effect; tags give direction and shape of the fitted curve.

UniProt B2RXH2, sequence (B2RXH2 whole entry, looked up, the tested form may be a part): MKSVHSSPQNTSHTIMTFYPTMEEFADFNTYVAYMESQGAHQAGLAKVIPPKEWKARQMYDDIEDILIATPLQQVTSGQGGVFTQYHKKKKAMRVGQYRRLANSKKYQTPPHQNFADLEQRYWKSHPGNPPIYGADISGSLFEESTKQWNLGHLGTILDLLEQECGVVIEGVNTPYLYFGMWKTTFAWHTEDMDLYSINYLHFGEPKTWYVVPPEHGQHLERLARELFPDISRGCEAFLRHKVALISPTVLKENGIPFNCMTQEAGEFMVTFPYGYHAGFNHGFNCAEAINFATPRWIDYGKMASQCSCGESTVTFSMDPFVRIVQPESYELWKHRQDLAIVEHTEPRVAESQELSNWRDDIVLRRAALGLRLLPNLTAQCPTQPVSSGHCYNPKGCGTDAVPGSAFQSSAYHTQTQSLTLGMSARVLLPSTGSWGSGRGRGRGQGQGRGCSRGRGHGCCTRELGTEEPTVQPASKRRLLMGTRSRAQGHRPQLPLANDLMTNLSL

SMILES | Potency
COc1cc(OC)c2c(OC)cccc2n1 | inconclusive: 25.1 µM [inhibitor, partial curve]
COc1ccc(CNc2nc3c(c(C(F)(F)F)n2)CCCCC3)cc1 | inconclusive: 28.2 µM [inhibitor, single point]
Cc1cc(C)n(CC(C)O)c(=O)c1C#N (stereo not given) | inconclusive: 39.8 µM [inhibitor, single point]
CCOc1ccc2c(c1)[N+](C)(C)C(C)(C)C=C2C | inactive
Cc1c(NC(=O)C23CC4CC(CC(C)(C4)C2)C3)c(=O)n(-c2ccccc2)n1C | inactive
CCOc1cc(CNCCSc2nnnn2C)cc(Br)c1OCc1ccccc1F | inactive
CCN(CC)c1ccc2cc(C(C)=O)c(=O)oc2c1 | inactive
CCN=C1S/C(=C\c2ccc(Sc3ccc(Cl)cc3)o2)C(=O)N1CC | inactive
Cc1ccccc1Cn1c2ccccc2c2cnn(CC(=O)N3CCN(c4ccccc4)CC3)c(=O)c21 | inconclusive: 28.2 µM [inhibitor, partial curve]
Cc1ccc(OCC(=O)c2cc(C)n(C)c2C)c([N+](=O)[O-])n1 | inactive
Cc1ccc(-c2csc3ncnc(Nc4ccc(N5CCOCC5)cc4)c23)cc1 | inconclusive: 35.5 µM [inhibitor, partial curve]
Cc1ccc(S(=O)(=O)c2c(N)n(CC3CCOC3)c3nc4ccccc4nc23)cc1 (stereo not given) | inconclusive: 28.2 µM [inhibitor, partial curve]
Cc1ccc(-n2nc(C)c3c(-c4cccs4)c(C#N)c(N)nc32)cc1 | inconclusive: 22.4 µM [inhibitor, partial curve]
Nc1cccnc1Sc1cccc(Cl)c1 | inconclusive: 22.4 µM [inhibitor, partial curve]
COc1ccc(OC)c(NC(=O)Nc2ccc(Cl)cc2)c1 | inactive
Cc1ccc2nc(NC(=O)c3ccc4c(c3)OCO4)sc2c1 | inconclusive: 25.1 µM [inhibitor, partial curve]
COc1ccc(NC(=O)N2c3ccc(OC)cc3C(C)=CC2(C)C)cc1 | inconclusive: 25.1 µM [inhibitor, partial curve]
O=C(COC(=O)c1cncc(Br)c1)Nc1nc(-c2ccc(F)cc2)cs1 | inconclusive: 8.91 µM [inhibitor, single point]
CCCn1c(SCC(=O)c2ccc3c(c2)NC(=O)CO3)nc2ccccc21 | inactive
NC(=O)C1CCN(C(=O)CCSc2ccc(Cl)cc2)CC1 | inactive
CC1CCc2nc(NC(=O)CN3CCN(Cc4ccc5c(c4)OCO5)CC3)sc2C1 (stereo not given) | inactive
CCSc1nccc(-c2nn(-c3ccc(C)cc3)ccc2=O)n1 | inconclusive: 39.8 µM [inhibitor, single point]
CCCCNC(=O)CN1C(=O)NC(CCc2ccccc2)C1=O (stereo not given) | inactive
O=S(=O)(O)c1nc2ccccc2n1Cc1cccc2ccccc12 | inconclusive: 25.1 µM [inhibitor, single point]
O=C1O/C(=C/c2ccccc2)c2ccccc21 | inconclusive: 28.2 µM [inhibitor, partial curve]

SMILES | Potency
O=C(Nc1ccc(F)cc1)Nc1nnc(-c2ccccc2)o1 | inconclusive: 28.2 µM [inhibitor, single point]
Oc1ccc(CNc2ccccc2)c2cccnc12 | active: 8.91 µM
CCCNC(=O)C1CCN(c2nc(C)cc(C)n2)CC1 | inconclusive: 28.2 µM [inhibitor, partial curve]
COc1cc(CNc2ccc(N3CCCC3)cc2)cc(Cl)c1OC | active: 14.1 µM
CN(C)CCNC(=O)/C(=C/c1ccc(-c2cccc([N+](=O)[O-])c2)o1)NC(=O)c1ccccc1 | inconclusive: 39.8 µM [inhibitor, single point]
COc1ccc(C2Nc3ccccc3C(=O)N2Cc2ccccc2)cc1CN1CCOCC1 (stereo not given) | inconclusive: 35.5 µM [inhibitor, partial curve]
COC(=O)Cn1c(=O)c2c(n(Cc3ccccc3)c1=O)N/C(=C/c1ccc(Br)cc1)C2=O | inactive
NNc1nc2ccc(Cl)cc2s1 | inconclusive: 28.2 µM [inhibitor, single point]
O=C(CN1CCOCC1)Nc1ccc(-c2nc3ccccc3[nH]2)cc1 | inconclusive: 35.5 µM [inhibitor, single point]
CCOc1ccc(NCC(=O)N/N=C/C=C/c2ccccc2)cc1 | inactive
N#C/C(=C\c1ccc(N2CCOCC2)o1)C(=O)NCCc1ccccc1 | active: 39.8 µM
NNc1nc(-c2ccccc2)nc2sc3c(c12)CCCC3 | inconclusive: 28.2 µM [inhibitor, single point]
O=C(c1cc2ncc(Br)cn2n1)N1CCN(C(=O)c2ccco2)CC1 | inactive
Cc1nnc(NC(=O)CSc2cn(CCNC(=O)c3ccccc3)c3ccccc23)s1 | inactive
O=c1c2cc(N3CCOCC3)ccc2[nH]c(=S)n1Cc1ccccn1 | inconclusive: 8.91 µM [inhibitor, partial curve]
COc1ccccc1/C=C/C=N/NC(=O)Cc1cccn1C | inconclusive: 31.6 µM [inhibitor, single point]
Cc1ccc2[nH]c(=O)c(C(c3nnnn3C(C)(C)C)N(Cc3ccco3)CC3CCCO3)cc2c1 (stereo not given) | inconclusive: 39.8 µM [inhibitor, single point]
c1ccc2c(Nc3ccncc3)nc(-c3ccc4c(c3)OCO4)nc2c1 | inconclusive: 31.6 µM [inhibitor, partial curve]
Cc1ccc(-n2c(N)c(C(=O)Nc3c(C)n(C)n(-c4ccccc4)c3=O)c3nc4ccccc4nc32)cc1C | inconclusive: 39.8 µM [inhibitor, single point]
Cc1cccc2cc(CN(Cc3ccc(F)cc3)Cc3nnnn3C3CCCC3)c(=O)[nH]c12 | inconclusive: 39.8 µM [inhibitor, single point]
CNC(=O)c1cc(NC(=O)CCn2nc(-c3ccccc3)c3ccccc3c2=O)ccc1OC | inactive
Cc1cccc(-c2cc3nc(C)cc(NCCCN(C)C)n3n2)c1 | inconclusive: 28.2 µM [inhibitor, partial curve]
COc1cc(O)c(C(CCN2CCN(c3ccccc3)CC2)c2cc(OC)c(OC)c(OC)c2)c(OC)c1 (stereo not given) | inactive
CSCC[C@H](NC(=O)OC(C)(C)C)C(=O)N/N=C/c1cc2ccc(C)cc2nc1Cl | inconclusive: 35.5 µM [inhibitor, single point]
O=C(NCc1ccco1)c1cc2sccc2n1Cc1ccccc1 | inconclusive: 39.8 µM [inhibitor, single point]

SMILES | Potency
COc1ccc(N2Cc3ccccc3C2=NC(=O)c2ccc(C)cc2)cc1OC | inactive
COc1ccc(COC(=O)c2ccc(N3CCCC3=O)cc2)cc1F | inactive
O=C(O)c1cc(C(=O)O)cc(-c2ccc(/C=c3/sc4nc5ccccc5n4c3=O)o2)c1 | active: 12.6 µM
CNC(=S)N1CCN=C1Nc1nc(C)cc(C)n1 | inactive
c1ccc(-n2cnc3cc(NCc4ccncc4)ccc32)cc1 | inconclusive: 39.8 µM [inhibitor, single point]
Cc1ccc2c(c1)cc1c(=O)[nH]ncn12 | inconclusive: 31.6 µM [inhibitor, single point]
CN(C)CCCNC(=O)c1ccc2[nH]c3ccccc3c2c1 | inconclusive: 31.6 µM [inhibitor, partial curve]
Cc1ccc(-c2nc3ccccc3c(=O)n2NC(=S)N(C)C)cc1 | inactive
CCOc1ccc(Nc2cc(=O)oc3ccccc23)cc1 | inconclusive: 35.5 µM [inhibitor, single point]
CN1CC2([N+](=O)[O-])CC=C(Oc3ccccc3)C([N+](=O)[O-])(C1)C2 (stereo not given) | inactive
COc1ccc(Nc2c(-c3ccc(OC)cc3)nc3cnccn23)cc1 | inconclusive: 39.8 µM [inhibitor, single point]
N#Cc1cc(-c2ccc(Cl)cc2)cnc1Sc1ccccc1 | inconclusive: 35.5 µM [inhibitor, single point]
COC(=O)Cn1c(=NC(=O)c2ccc([N+](=O)[O-])s2)sc2cc(Br)ccc21 | inactive
COc1cc2ccccc2cc1C(=O)OCC(=O)N1CCOCC1 | inconclusive: 28.2 µM [inhibitor, partial curve]
CCCOc1cccc(C2/C(=C(/O)c3ccc(OC)cc3)C(=O)C(=O)N2CCN(C)C)c1 (stereo not given) | inactive
CCOC(=O)Cc1[nH]nc2c1C(c1ccoc1)C(C#N)=C(N)O2 (stereo not given) | inactive
Cc1nn(CC(=O)Nc2ccc3c(c2)nc2n3CCN(C3CCCCC3)C2)c(=O)c2ccccc12 | inconclusive: 28.2 µM [inhibitor, partial curve]
CCCCC[C@H](O)/C=C/[C@H]1OC(O)C[C@H](O)[C@@H]1C/C=C\CCCC(=O)O (stereo not given in full) | inactive
O=C1C2C3c4ccccc4C(c4ccccc43)C2C(=O)N1Cc1ccco1 (stereo not given) | inactive
CCOC(=O)c1sc(-c2ccccn2)nc1C | inactive
O=C(CCCCCNC(=O)c1ccccc1)N/N=C/c1ccc(O)cc1O | active: 20 µM
CCCCCCn1c(=O)c(Cc2ccccc2)c(O)c2ccccc21 | inconclusive: 28.2 µM [inhibitor, single point]
COc1ccc(-c2csc3nc(C)n(-n4cccc4)c(=O)c23)cc1 | inconclusive: 39.8 µM [inhibitor, single point]
Cc1ccc(CN2CCSc3ccc(C(=O)NCc4ccccn4)cc32)cc1 | inconclusive: 31.6 µM [inhibitor, partial curve]
CCOC(=O)Cc1csc(SCc2cc(=O)oc3cc(O)ccc23)n1 | inconclusive: 22.4 µM [inhibitor, partial curve]
